The text below walks through data of a collection of fitness landscapes (doi:10.1016/j.celrep.2020.107928).

Over roughly 81,000 sequences, “one-hybrid fitness for binding parS DNA” has its median near -0.17; the highest 2% begin near 0.51. The list shows a part of the results.

B1: Caulobacter ParB omega fusion; a variant is named by its letters at X, in order, B8GW30 (parent)
chain: MESVVVGEPGMSEGRRGLGRGLSALLGEVDAAPAQAPGEQLGGSREAPIEILQRNPDQPRRTFREEDLEDLSNSIREKGVLQPILVRPSPDTAGEYQIVAGERAWRAAQRAGLKTVPIMVRELDDLAVLEIGIIENVQRADLNVLEEALSYKVLMEKFERTQENIAQTIGKSXSHVANXMRLLXLPDEVQSYLVSGELTAXHARAIAAAADPVALAKQIIEGGLSVRETEALARKAPNLSAGKSKGGRPPRVKDTDTQALESDLSSVLGLDVSIDHRGSTGTLTITYATLEQLDDLCNRLTRGI

Variants of B1 are the subject of the experiment. Nature of the experiment: one-hybrid fitness for binding parS DNA (scaled: cognate 1, non-cognate 0); higher = stronger binding. To be noted: with parS DNA site. The method in brief: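 Values were rescaled so that cognate is 1 and non-cognate is 0. Each is a fitness, the log change in a variant's read ratio to wild type from Illumina reads of plasmids before and after selection, with three replicate libraries pooled and variants under 10 reads dropped. Selection of the Caulobacter ParB libraries, four specificity codons randomised, used E. coli USO with a HIS3 reporter, site 19 bp from the promoter, on M9-minus-histidine with 0.1 mM IPTG and 5 mM 3-AT for 48 hours at 37°C.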
With TMLN, the “one-hybrid fitness for binding parS DNA” value was at most 0.2.

QTGY: the “one-hybrid fitness for binding parS DNA” value was at most 0.2.

For KYWS, the “one-hybrid fitness for binding parS DNA” value was at most 0.2.

Take YRGS: the “one-hybrid fitness for binding parS DNA” value worked out at 0.356.

In the case of QRVC, the “one-hybrid fitness for binding parS DNA” value was at most 0.2.

Regarding NEIT, the “one-hybrid fitness for binding parS DNA” value was at most 0.2.

In the case of HTHT, the “one-hybrid fitness for binding parS DNA” value was at most 0.2.

For SRMM, the “one-hybrid fitness for binding parS DNA” value is at most 0.2.

With SRAI, the “one-hybrid fitness for binding parS DNA” value is at most 0.2.

Regarding RCHG, the “one-hybrid fitness for binding parS DNA” value was 0.994.

On to LEPD, for which the “one-hybrid fitness for binding parS DNA” value was at most 0.2.

For TRVQ, the “one-hybrid fitness for binding parS DNA” value was at most 0.2.

Regarding FGRL, the “one-hybrid fitness for binding parS DNA” value was at most 0.2.

Take CCPS: the “one-hybrid fitness for binding parS DNA” value is at most 0.2.

Consider HLSG, for which the “one-hybrid fitness for binding parS DNA” value was at most 0.2.

LAKT: the “one-hybrid fitness for binding parS DNA” value is at most 0.2.

With YETG, the “one-hybrid fitness for binding parS DNA” value was at most 0.2.

As for RYHQ, the “one-hybrid fitness for binding parS DNA” value is at most 0.2.

Regarding QEHF, the “one-hybrid fitness for binding parS DNA” value is at most 0.2.

Regarding RHVN, the “one-hybrid fitness for binding parS DNA” value worked out at 0.302.

As for MTTA, the “one-hybrid fitness for binding parS DNA” value was at most 0.2.

As to PDTD, the “one-hybrid fitness for binding parS DNA” value was at most 0.2.

On to YSEY, for which the “one-hybrid fitness for binding parS DNA” value was at most 0.2.

Consider LTIS, for which the “one-hybrid fitness for binding parS DNA” value was at most 0.2.

As for WTRS, the “one-hybrid fitness for binding parS DNA” value was at most 0.2.

As for SDTY, the “one-hybrid fitness for binding parS DNA” value is at most 0.2.

On to SMCF, for which the “one-hybrid fitness for binding parS DNA” value is at most 0.2.

ISLN: the “one-hybrid fitness for binding parS DNA” value is at most 0.2.

Turning to NWKT, the “one-hybrid fitness for binding parS DNA” value was at most 0.2.

Regarding RVLT, the “one-hybrid fitness for binding parS DNA” value was found to be 0.92.

YYCC: the “one-hybrid fitness for binding parS DNA” value was at most 0.2.

On to FYDV, for which the “one-hybrid fitness for binding parS DNA” value is at most 0.2.

Consider ACVN, for which the “one-hybrid fitness for binding parS DNA” value was at most 0.2.

Take YDCG: the “one-hybrid fitness for binding parS DNA” value is at most 0.2.

Take IRYT: the “one-hybrid fitness for binding parS DNA” value is at most 0.2.

With TRWC, the “one-hybrid fitness for binding parS DNA” value is at most 0.2.

With AIEC, the “one-hybrid fitness for binding parS DNA” value is at most 0.2.

As to AEHT, the “one-hybrid fitness for binding parS DNA” value was at most 0.2.

For the variant RNFG, the “one-hybrid fitness for binding parS DNA” value is 0.662.

Take KRES: the “one-hybrid fitness for binding parS DNA” value is at most 0.2.

With AGHS, the “one-hybrid fitness for binding parS DNA” value is at most 0.2.

For KPTY, the “one-hybrid fitness for binding parS DNA” value is at most 0.2.

Turning to NPQV, the “one-hybrid fitness for binding parS DNA” value was at most 0.2.

Turning to IRCC, the “one-hybrid fitness for binding parS DNA” value was at most 0.2.

Take KYWL: the “one-hybrid fitness for binding parS DNA” value is at most 0.2.

For the variant DFHG, the “one-hybrid fitness for binding parS DNA” value is at most 0.2.

Turning to HVWT, the “one-hybrid fitness for binding parS DNA” value is at most 0.2.

As to NPTS, the “one-hybrid fitness for binding parS DNA” value is at most 0.2.

With YQQS, the “one-hybrid fitness for binding parS DNA” value is at most 0.2.

WWRT: the “one-hybrid fitness for binding parS DNA” value is at most 0.2.

With STGI, the “one-hybrid fitness for binding parS DNA” value is at most 0.2.

As for GIHR, the “one-hybrid fitness for binding parS DNA” value was at most 0.2.

ISDW: the “one-hybrid fitness for binding parS DNA” value is at most 0.2.

Turning to TKMW, the “one-hybrid fitness for binding parS DNA” value was at most 0.2.

In the case of NSRT, the “one-hybrid fitness for binding parS DNA” value is at most 0.2.

Regarding KSPN, the “one-hybrid fitness for binding parS DNA” value is at most 0.2.

As to RKCK, the “one-hybrid fitness for binding parS DNA” value is at most 0.2.

As for QQKE, the “one-hybrid fitness for binding parS DNA” value is at most 0.2.

For HGGT, the “one-hybrid fitness for binding parS DNA” value is at most 0.2.

As for RLIE, the “one-hybrid fitness for binding parS DNA” value was at most 0.2.

SESS: the “one-hybrid fitness for binding parS DNA” value is at most 0.2.

For the variant PPGE, the “one-hybrid fitness for binding parS DNA” value was at most 0.2.

Take NVPW: the “one-hybrid fitness for binding parS DNA” value was at most 0.2.

In the case of KMAF, the “one-hybrid fitness for binding parS DNA” value is at most 0.2.

With RIPV, the “one-hybrid fitness for binding parS DNA” value is at most 0.2.

With SSVN, the “one-hybrid fitness for binding parS DNA” value is at most 0.2.

As to KHTA, the “one-hybrid fitness for binding parS DNA” value was at most 0.2.

Consider TDNG, for which the “one-hybrid fitness for binding parS DNA” value was at most 0.2.

Turning to SDYC, the “one-hybrid fitness for binding parS DNA” value was at most 0.2.

GTAA: the “one-hybrid fitness for binding parS DNA” value is at most 0.2.

In the case of PTTV, the “one-hybrid fitness for binding parS DNA” value is at most 0.2.

On to CTYT, for which the “one-hybrid fitness for binding parS DNA” value was at most 0.2.

With NACR, the “one-hybrid fitness for binding parS DNA” value was at most 0.2.

Take HSCL: the “one-hybrid fitness for binding parS DNA” value was at most 0.2.

Take IMSS: the “one-hybrid fitness for binding parS DNA” value is at most 0.2.

Regarding LDKY, the “one-hybrid fitness for binding parS DNA” value was at most 0.2.

RCTH: the “one-hybrid fitness for binding parS DNA” value was 0.249.

On to WHPE, for which the “one-hybrid fitness for binding parS DNA” value is at most 0.2.

For RKCN, the “one-hybrid fitness for binding parS DNA” value was found to be 0.302.

Take IDWR: the “one-hybrid fitness for binding parS DNA” value was at most 0.2.

As for FWQG, the “one-hybrid fitness for binding parS DNA” value was at most 0.2.

Turning to KLQV, the “one-hybrid fitness for binding parS DNA” value was at most 0.2.

As for DGKC, the “one-hybrid fitness for binding parS DNA” value was at most 0.2.

With KWLC, the “one-hybrid fitness for binding parS DNA” value is at most 0.2.

Regarding LWIG, the “one-hybrid fitness for binding parS DNA” value is at most 0.2.

Turning to GRHY, the “one-hybrid fitness for binding parS DNA” value is at most 0.2.

Take CDMC: the “one-hybrid fitness for binding parS DNA” value is at most 0.2.

On to KGIV, for which the “one-hybrid fitness for binding parS DNA” value is at most 0.2.

Turning to SPTN, the “one-hybrid fitness for binding parS DNA” value was at most 0.2.

As to TNES, the “one-hybrid fitness for binding parS DNA” value was at most 0.2.

For VVMR, the “one-hybrid fitness for binding parS DNA” value was at most 0.2.

With RNCQ, the “one-hybrid fitness for binding parS DNA” value is at most 0.2.

For HGMN, the “one-hybrid fitness for binding parS DNA” value was at most 0.2.

In the case of GCPR, the “one-hybrid fitness for binding parS DNA” value was at most 0.2.

Consider QNTW, for which the “one-hybrid fitness for binding parS DNA” value was at most 0.2.

Turning to KVWG, the “one-hybrid fitness for binding parS DNA” value was at most 0.2.

Take YAQA: the “one-hybrid fitness for binding parS DNA” value is at most 0.2.

Take QRKC: the “one-hybrid fitness for binding parS DNA” value was at most 0.2.
